{"source": "PubChem BioAssay (NCATS)", "note": "The list shows a part of the results. These are further read-outs of the screen, such as a control signal, another cell line or another target. No call is given for them. Compounds called inactive in the main read-out are mostly missing here.", "data": [{"assay": "qHTS Assay for Lipid Storage Modulators (AID 1519)", "conditions": "Drosophila S3 cells, BODIPY lipid droplet/cell ratio, laser cytometry; measured here: lipid channel max response; cells loaded with oleic acid", "summary_of_the_method": "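Cells seeded at 5,000 per well were treated with compounds over a concentration series and loaded with oleic acid (400 uM, as added). Lipid droplet fluorescence (488 nm excitation, 500-530 nm channel) was read by laser-scanning cytometry and normalized to 20 uM Triacsin C.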", "units": {"max response": "%"}, "values": [{"smiles": "COc1ccccc1CNc1cc(-c2cccc(NS(C)(=O)=O)c2)ncn1", "max response": 8.74}, {"smiles": "O=C(Nc1cccc(F)c1)N1CCC2(CC1)CCN(C(=O)c1ccncc1)CC2", "max response": 23.6}, {"smiles": "COc1ccc2[nH]cc(CCNc3ccnc(-c4ccc5c(c4)OCO5)n3)c2c1", "max response": 24.9}, {"smiles": "CN(C)c1ncc2ncc(=O)n(Cc3cccs3)c2n1", "max response": 28.1}, {"smiles": "N[C@@H](Cc1cc(-c2ccc(Cl)cc2Cl)cc(CP(=O)(O)O)c1O)C(=O)O", "max response": 27.9}, {"smiles": "CN1CCN(c2ccnc(-c3cccc(NS(C)(=O)=O)c3)n2)CC1", "max response": 32.2}, {"smiles": "COc1ccc(C2COc3c(ccc(O)c3OC)C2)c(OC)c1O", "note": "(stereo not drawn)", "max response": 41.8}, {"smiles": "CCN1CCN(c2cc3c(cc2F)c(=O)c(C(=O)O)cn3C2CC2)CC1", "max response": 32.7}, {"smiles": "C[C@@](Cc1ccc(O)c(O)c1)(NN)C(=O)O", "max response": 35.4}, {"smiles": "CCNc1ncc2nc(C)c(=O)n(CCc3ccccc3)c2n1", "max response": 24.6}, {"smiles": "Cc1cnc(CNc2ncnc3ccc(-c4ccccc4Cl)cc23)cn1", "max response": 22}, {"smiles": "COc1ccccc1CNc1ncncc1-c1ccccc1Cl", "max response": 28.2}, {"smiles": "CN1CCN(c2ncc3nc(-c4cccs4)c(=O)n(CCc4ccccc4)c3n2)CC1", "max response": 11.9}, {"smiles": "O=C(c1ccco1)N1CCC2(CCCN(Cc3ccncc3)C2)CC1", "max response": 35.2}, {"smiles": "N#Cc1cccc(NC(=O)N2CCCC3(CCN(C(=O)c4ccncc4)CC3)C2)c1", "max response": 32.9}, {"smiles": "COc1cc(C(C)=O)cc(OC)c1O", "max response": 34.5}, {"smiles": "CCNc1ncc2nc(-c3ccc(OC)cc3)c(=O)n(C)c2n1", "max response": 24.7}, {"smiles": "COc1cccc(Nc2ncc3nc(-c4cccs4)c(=O)n(Cc4cccs4)c3n2)c1", "max response": -47}, {"smiles": "O=c1c(CCc2ccccc2)nc2cnc(Nc3ccccc3)nc2n1C[C@H]1CCCO1", "max response": -33.2}, {"smiles": "COCCNc1nc(-c2ccc(N(C)C)cc2)nc2ccccc12", "max response": -18.2}, {"smiles": "COc1cc2c(cc1OC)-c1c(oc3cc(O)cc(O)c3c1=O)CO2", "max response": -57.7}, {"smiles": "N#Cc1ccc(CN2CC3(CCN(C(=O)c4cc(C(F)(F)F)cc(C(F)(F)F)c4)CC3)C2)cc1", "max response": -50.6}, {"smiles": "O=C(c1ccncc1)N1CCC2(CC1)CCN(c1ncccn1)CC2", "max response": 30.7}]}]}
